This is one part of the list.
What was measured:
Experiment in all cases: glycan array binding signal (z-score within array); higher = stronger binding
Details in all cases: glycan notation: IUPAC condensed, linker removed
Fuc(a1-2)Gal = molecular target: Fuc(a1-2)Gal
In short: (§1)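 Glycan array data were curated from 3228 arrays in the Consortium for Functional Glycomics database and kept only where the protein sequence was available. Glycan names were converted to IUPAC-condensed notation, and columns mapping to the same glycan were averaged. The binding signal is a within-array Z-score, averaged across arrays of the same protein sequence at different concentrations or buffers and across linkers. Negative Z-scores can be read as non-binding.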

Fuc(a1-2)Gal(b1-3)GalNAc = molecular target: Fuc(a1-2)Gal(b1-3)GalNAc
In short: as §1

[1] = molecular target: Fuc(a1-2)Gal(b1-3)GalNAc(a1-3)[Fuc(a1-2)]Gal(b1-4)Glc
In short: as §1

[2] = molecular target: Fuc(a1-2)Gal(b1-3)GalNAc(a1-3)[Fuc(a1-2)]Gal(b1-4)GlcNAc
In short: as §1

[3] = molecular target: Fuc(a1-2)Gal(b1-3)GalNAc(b1-3)Gal
In short: as §1

[4] = molecular target: Fuc(a1-2)Gal(b1-3)GalNAc(b1-3)Gal(a1-4)Gal(b1-4)Glc
In short: as §1

[5] = molecular target: Fuc(a1-2)Gal(b1-3)GalNAc(b1-4)[Neu5Ac(a2-3)]Gal(b1-4)Glc
In short: as §1

Fuc(a1-2)Gal(b1-3)GlcNAc = molecular target: Fuc(a1-2)Gal(b1-3)GlcNAc
In short: as §1

[6] = molecular target: Fuc(a1-2)Gal(b1-3)GlcNAc(b1-2)Man(a1-3)[Fuc(a1-2)Gal(b1-3)GlcNAc(b1-2)Man(a1-6)]Man(b1-4)GlcNAc(b1-4)GlcNAc
In short: as §1

[7] = molecular target: Fuc(a1-2)Gal(b1-3)GlcNAc(b1-2)Man(a1-3)[Fuc(a1-2)Gal(b1-3)GlcNAc(b1-2)Man(a1-6)]Man(b1-4)GlcNAc(b1-4)[Fuc(a1-6)]GlcNAc
In short: as §1

[8] = molecular target: Fuc(a1-2)Gal(b1-3)GlcNAc(b1-3)Gal(b1-4)Glc
In short: as §1

[9] = molecular target: Fuc(a1-2)Gal(b1-3)GlcNAc(b1-3)GalNAc
In short: as §1

[10] = molecular target: Fuc(a1-2)Gal(b1-3)GlcNAc(b1-3)[Fuc(a1-2)Gal(b1-3)GlcNAc(b1-6)]GalNAc
In short: as §1

[11] = molecular target: Fuc(a1-2)Gal(b1-3)GlcNAc(b1-3)[Gal(b1-4)GlcNAc(b1-6)]Gal(b1-4)Glc
In short: as §1

[12] = molecular target: Fuc(a1-2)Gal(b1-3)GlcNAc(b1-3)[Neu5Ac(a2-6)Gal(b1-4)GlcNAc(b1-6)]Gal(b1-4)Glc
In short: as §1

[13] = molecular target: Fuc(a1-2)Gal(b1-3)GlcNAc6S
In short: as §1

[14] = molecular target: Fuc(a1-2)Gal(b1-3)[Fuc(a1-4)]GlcNAc
In short: as §1

[15] = molecular target: Fuc(a1-2)Gal(b1-3)[Fuc(a1-4)]GlcNAc(b1-2)Man(a1-3)[Fuc(a1-2)Gal(b1-3)[Fuc(a1-4)]GlcNAc(b1-2)Man(a1-3)]Man(b1-4)GlcNAc(b1-4)GlcNAc
In short: as §1

[16] = molecular target: Fuc(a1-2)Gal(b1-3)[Fuc(a1-4)]GlcNAc(b1-2)Man(a1-3)[Fuc(a1-2)Gal(b1-3)[Fuc(a1-4)]GlcNAc(b1-2)Man(a1-6)]Man(b1-4)GlcNAc(b1-4)[Fuc(a1-6)]GlcNAc(b1-4)[Fuc(a1-6)]GlcNAc
In short: as §1

[17] = molecular target: Fuc(a1-2)Gal(b1-3)[Fuc(a1-4)]GlcNAc(b1-3)[Fuc(a1-3)[Gal(b1-4)]GlcNAc(b1-6)]Gal(b1-4)Glc
In short: as §1

[18] = molecular target: Fuc(a1-2)Gal(b1-3)[Fuc(a1-4)]GlcNAc(b1-3)[Gal(b1-4)GlcNAc(b1-6)]Gal(b1-4)Glc
In short: as §1

Fuc(a1-2)Gal(b1-4)Glc = molecular target: Fuc(a1-2)Gal(b1-4)Glc
In short: as §1

Fuc(a1-2)Gal(b1-4)Glc6S = molecular target: Fuc(a1-2)Gal(b1-4)Glc6S
In short: as §1

Fuc(a1-2)Gal(b1-4)GlcNAc = molecular target: Fuc(a1-2)Gal(b1-4)GlcNAc
In short: as §1

[19] = molecular target: Fuc(a1-2)Gal(b1-4)GlcNAc(b1-2)Man
In short: as §1

[20] = molecular target: Fuc(a1-2)Gal(b1-4)GlcNAc(b1-2)Man(a1-3)[Fuc(a1-2)Gal(b1-4)GlcNAc(b1-2)Man(a1-6)]Man(b1-4)GlcNAc(b1-4)GlcNAc
In short: as §1

[21] = molecular target: Fuc(a1-2)Gal(b1-4)GlcNAc(b1-2)Man(a1-3)[Fuc(a1-2)Gal(b1-4)GlcNAc(b1-2)Man(a1-6)]Man(b1-4)GlcNAc(b1-4)[Fuc(a1-6)]GlcNAc
In short: as §1

[22] = molecular target: Fuc(a1-2)Gal(b1-4)GlcNAc(b1-2)[Fuc(a1-2)Gal(b1-4)GlcNAc(b1-4)]Man(a1-3)[Fuc(a1-2)Gal(b1-4)GlcNAc(b1-2)Man(a1-6)]Man(b1-4)GlcNAc(b1-4)GlcNAc
In short: as §1

[23] = molecular target: Fuc(a1-2)Gal(b1-4)GlcNAc(b1-3)Gal(b1-4)GlcNAc
In short: as §1

[24] = molecular target: Fuc(a1-2)Gal(b1-4)GlcNAc(b1-3)Gal(b1-4)GlcNAc(b1-2)Man(a1-3)[Fuc(a1-2)Gal(b1-4)GlcNAc(b1-3)Gal(b1-4)GlcNAc(b1-2)Man(a1-6)]Man(b1-4)GlcNAc(b1-4)GlcNAc
In short: as §1

B1: diCBM40 CPF071 (Clostridium perfringens) (protein)
chain: MAHHHHHHVGTGSNDDDDKSPDPMLSSLGEYKDINLESSNASNITYDLEKYKNLDEGTIVVRFNSKDSKIQSLLGISNSKTKNGYFNFYVTNSRVGFELRNQKNEGNTQNGTENLVHMYKDVALNDGDNTVALKIEKNKGYKLFLNGKMIKEVKDTNTKFLNNIENLDSAFIGKTNRYGQSNEYNFKGNIGFMNIYNEPLGDDYLLSKTGETKALNGSELGSGSGLSSLGEYKDINLESSNASNITYDLEKYKNLDEGTIVVRFNSKDSKIQSLLGISNSKTKNGYFNFYVTNSRVGFELRNQKNEGNTQNGTENLVHMYKDVALNDGDNTVALKIEKNKGYKLFLNGKMIKEVKDTNTKFLNNIENLDSAFIGKTNRYGQSNEYNFKGNIGFMNIYNEPLGDDYLLSKTGETK
glycan array binding signal (z-score) (Fuc(a1-2)Gal): -0.341
glycan array binding signal (z-score) (Fuc(a1-2)Gal(b1-3)GalNAc): -0.289
glycan array binding signal (z-score) [1]: -0.306
glycan array binding signal (z-score) [2]: -0.32
glycan array binding signal (z-score) [3]: -0.136
glycan array binding signal (z-score) [4]: -0.304
glycan array binding signal (z-score) [5]: -0.14
glycan array binding signal (z-score) (Fuc(a1-2)Gal(b1-3)GlcNAc): -0.159
glycan array binding signal (z-score) [6]: 0.005
glycan array binding signal (z-score) [7]: -0.303
glycan array binding signal (z-score) [8]: -0.128
glycan array binding signal (z-score) [9]: -0.317
glycan array binding signal (z-score) [10]: -0.285
glycan array binding signal (z-score) [11]: -0.277
glycan array binding signal (z-score) [12]: -0.275
glycan array binding signal (z-score) [13]: -0.281
glycan array binding signal (z-score) [14]: -0.247
glycan array binding signal (z-score) [15]: -0.301
glycan array binding signal (z-score) [16]: -0.324
glycan array binding signal (z-score) [17]: -0.327
glycan array binding signal (z-score) [18]: -0.297
glycan array binding signal (z-score) (Fuc(a1-2)Gal(b1-4)Glc): -0.349
glycan array binding signal (z-score) (Fuc(a1-2)Gal(b1-4)Glc6S): -0.338
glycan array binding signal (z-score) (Fuc(a1-2)Gal(b1-4)GlcNAc): -0.304
glycan array binding signal (z-score) [19]: -0.326
glycan array binding signal (z-score) [20]: -0.021
glycan array binding signal (z-score) [21]: -0.291
glycan array binding signal (z-score) [22]: -0.32
glycan array binding signal (z-score) [23]: -0.34
glycan array binding signal (z-score) [24]: -0.312
